Assay results taken from the supplement of paper PMC9174493.
Some of the results follow. Single values of this set are uncertain. Values with irradiation are relative to irradiated vehicle.

How the values were obtained:
A549-Dual [1] = experiment: NF-kB reporter (SEAP) activity, viability-corrected, relative to vehicle (fold change vs vehicle); higher = more activation of STING-IRF / NF-kB immune response reporter; conditions: 10 µM
A549-Dual [2] = experiment: ISRE reporter (Lucia luciferase) activity, viability-corrected, relative to vehicle (fold change vs vehicle); higher = more activation of STING-IRF / NF-kB immune response reporter; conditions: 10 µM
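Throughout, for NF-kB reporter (SEAP) activity, viability-corrected, relative to vehicle: viability correction based on the alamar blue assay, with concentrations leaving 10% survival or less dropped.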

Compound | NF-kB reporter (A549-Dual [1]; irradiation: 8 Gy/4 fr) | NF-kB reporter (A549-Dual [1]; irradiation: none) | ISRE reporter (A549-Dual [2]; irradiation: 8 Gy/4 fr) | ISRE reporter (A549-Dual [2]; irradiation: none)
Clc1ccc(COC(Cn2ccnc2)c2ccc(Cl)cc2Cl)cc1 (stereo not drawn) [Econazole] | 0.381 | 0.538 | 0.364 | 0.445
CCN1CC(CCN2CCOCC2)C(c2ccccc2)(c2ccccc2)C1=O (stereo not drawn) [Doxapram] | 0.763 | 0.711 | 0.686 | 0.496
c1cnc(N2CCN(Cc3ccc4c(c3)OCO4)CC2)nc1 [Piribedil] | 0.462 | 0.857 | 0.52 | 0.803
Nc1ccc(S(N)(=O)=O)cc1 [Sulfanilamide] | 1.06 | 1.09 | 1.29 | 1.02
CO/N=C(\C(=O)NC1C(=O)N2C(C(=O)O)=CCSC12)c1csc(N)n1 (stereo not drawn) [Ceftizoxime] | 0.926 | 0.908 | 0.983 | 0.741
OCC1OC(OC2(CCl)OC(CCl)C(O)C2O)C(O)C(O)C1Cl (stereo not drawn) [Sucralose] | 0.502 | 0.491 | 0.542 | 0.591
COc1ccc(C(=O)c2ccccc2)c(O)c1 [Oxybenzone] | 0.759 | 0.506 | 0.636 | 0.459
NS(=O)(=O)c1ccc(C(=O)O)cc1 [Carzenide] | 0.844 | 0.685 | 0.585 | 0.412
CCOC(=O)C(CCc1ccccc1)NC(C)C(=O)N1C(C(=O)O)CC2CCCCC21 (stereo not drawn) [Trandolapril] | 0.785 | 1.25 | 0.821 | 0.808
CCCCCCCC/C=C\CCCCCCCC(=O)OCC [Ethyl Oleate] | 0.673 | 0.575 | 0.687 | 0.431
CCCNC1CCc2nc(N)sc2C1.Cl.Cl (stereo not drawn) [Pramipexole dihydrochloride] | 0.925 | 1.15 | 1.11 | 0.998
Cl.Clc1ccc(CCCOCCCN2CCCCC2)cc1 [Pitolisant hydrochloride] | 0.835 | 0.806 | 0.869 | 0.903
CN(C)CCOC(c1ccccc1)c1ccccc1.Cn1c(=O)c2[nH]c(Cl)nc2n(C)c1=O [Dimenhydrinate] | 0.876 | 1 | 1.08 | 1.02
CC(C)(C)NC(=O)C1CN(Cc2cccnc2)CCN1CC(O)CC(Cc1ccccc1)C(=O)NC1c2ccccc2CC1O.O=S(=O)(O)O (stereo not drawn) [Indinavir Sulfate] | 0.765 | 0.931 | 0.712 | 0.751
Cl.N=C(N)NC(=O)Cc1c(Cl)cccc1Cl [Guanfacine Hydrochloride] | 0.798 | 1.09 | 0.584 | 0.634
COc1ccc(CNc2nc(N3CCCC3CO)ncc2C(=O)NCc2ncccn2)cc1Cl (stereo not drawn) [Avanafil] | 0.749 | 0.842 | 0.667 | 0.805
COc1ccc(/C=C/c2cc(OC)cc(=O)o2)cc1 [Yangonin] | 1.09 | 1.02 | 1.09 | 1.03
CCOC(=O)C(CCc1ccccc1)NC(C)C(=O)N1CCCC1C(=O)O.O=C(O)/C=C\C(=O)O (stereo not drawn) [Enalapril Maleate] | 0.888 | 1.01 | 1.08 | 0.859
Cl.Clc1ccc2nsnc2c1NC1=NCCN1 [Tizanidine HCl] | 0.752 | 0.922 | 0.761 | 0.884
CC(C)=CCC/C(C)=C/C=O [Citral] | 1.17 | 0.962 | 1.09 | 0.582
C=CCCCCCCCCC(=O)[O-].C=CCCCCCCCCC(=O)[O-].[Zn+2] [Zinc Undecylenate] | 0.739 | 0.946 | 0.71 | 0.816
CC(C)c1nc(CN(C)C(=O)NC(C(=O)NC(Cc2ccccc2)CC(O)C(Cc2ccccc2)NC(=O)OCc2cncs2)C(C)C)cs1 (stereo not drawn) [Ritonavir] | 0.606 | 0.671 | 0.655 | 0.812
